Test results published in article PMC4336329 (PLoS ONE, 2015).
Hit rate of the full screen: of about 310,000 compounds, about 2,200 (0.71%) showed an effect of 50% or more. Effects have a minus sign here. This is one part of the list.

Target: human ether-à-go-go-related gene (hERG) potassium channel (human, UniProt Q12809)
Test: primary screen, population patch clamp on CHO cells stably expressing hERG

Sequence of human ether-à-go-go-related gene (hERG) potassium channel (Q12809 whole entry, looked up): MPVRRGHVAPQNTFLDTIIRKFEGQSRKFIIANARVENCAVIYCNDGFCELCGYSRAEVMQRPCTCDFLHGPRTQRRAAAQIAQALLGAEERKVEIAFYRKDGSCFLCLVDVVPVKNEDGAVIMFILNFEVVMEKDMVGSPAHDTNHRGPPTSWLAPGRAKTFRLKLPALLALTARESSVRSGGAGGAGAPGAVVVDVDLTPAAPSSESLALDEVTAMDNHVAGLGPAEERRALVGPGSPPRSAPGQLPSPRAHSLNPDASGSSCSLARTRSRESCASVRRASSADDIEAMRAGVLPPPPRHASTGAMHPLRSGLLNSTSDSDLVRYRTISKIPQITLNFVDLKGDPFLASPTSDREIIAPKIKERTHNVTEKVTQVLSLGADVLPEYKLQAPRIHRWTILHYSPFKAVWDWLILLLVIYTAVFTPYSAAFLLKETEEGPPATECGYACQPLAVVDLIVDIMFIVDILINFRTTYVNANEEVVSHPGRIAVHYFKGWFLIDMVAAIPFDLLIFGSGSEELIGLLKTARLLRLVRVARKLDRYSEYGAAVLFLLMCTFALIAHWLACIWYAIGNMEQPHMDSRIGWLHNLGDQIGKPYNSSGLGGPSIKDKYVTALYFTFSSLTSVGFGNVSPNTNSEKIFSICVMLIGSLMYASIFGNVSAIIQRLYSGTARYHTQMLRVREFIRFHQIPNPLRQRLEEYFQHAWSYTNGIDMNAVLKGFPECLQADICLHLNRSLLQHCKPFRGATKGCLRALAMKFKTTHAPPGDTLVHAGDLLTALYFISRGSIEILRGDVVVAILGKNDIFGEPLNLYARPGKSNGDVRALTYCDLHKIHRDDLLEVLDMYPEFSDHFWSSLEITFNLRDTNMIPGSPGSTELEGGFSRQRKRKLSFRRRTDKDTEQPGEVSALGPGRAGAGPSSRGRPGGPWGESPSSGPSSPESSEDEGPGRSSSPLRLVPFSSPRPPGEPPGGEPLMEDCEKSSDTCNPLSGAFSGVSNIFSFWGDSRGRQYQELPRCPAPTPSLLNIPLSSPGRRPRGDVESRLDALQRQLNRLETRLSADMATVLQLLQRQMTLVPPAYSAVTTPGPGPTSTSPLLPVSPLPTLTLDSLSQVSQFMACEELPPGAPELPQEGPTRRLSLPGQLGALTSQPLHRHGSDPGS

Compared with `COCCn1c(=S)[nH]c2ccc(N(C)C)cc2c1=O`, `CCOc1c(Cl)cc(CNc2nnnn2C)cc1OC` is higher in “hERG current change (%, negative = inhibition) at 1uM” value: 5.29% for the first, 15.1% for the second.

Going from `CCOc1cc(/C=N/NC(=O)c2cccc([N+](=O)[O-])c2)ccc1OS(=O)(=O)c1ccccc1` to `COc1cc(/C=N/NC(=O)c2ccccc2)ccc1O`, the “hERG current change (%, negative = inhibition) at 1uM” value rises from -10.8% to -5.66%.

Compared with `Cc1ccc(Cl)cc1NC(=S)N(Cc1ccco1)C(C)c1cccs1` (centres unmarked), `O=C(NCc1ccco1)c1cc2ccccc2c(=O)o1` is higher in “hERG current change (%, negative = inhibition) at 1uM” value: 12.6% for the first, 19.5% for the second.

Compared with `O=c1cc(O)sc2ccccc12`, `CC(C)(C)NC(=O)CCCSc1nc2ccccc2s1` is lower in “hERG current change (%, negative = inhibition) at 1uM” value: 11.3% for the first, 0.265% for the second.

Going from `O=C(COc1ccc(C(=S)N2CCOCC2)cc1Cl)Nc1ccccc1Cl` to `O=C(CSc1ccc2ccccc2n1)Nc1ccc(N2CCOCC2)cc1`, the “hERG current change (%, negative = inhibition) at 1uM” value falls from 14.4% to 9.91%.

Going from `CCOc1ccc(NC(=O)COC(=O)CCS(=O)(=O)c2ccc(C)cc2)cc1` to `Cc1ccc(S(=O)(=O)N(C)C)cc1NC(=O)COC(=O)Cc1ccc(Br)cc1`, the “hERG current change (%, negative = inhibition) at 1uM” value falls from 9.19% to -3.8%.

Compared with `NC(=O)c1ccc(C2SCC(=O)N2CCc2ccccc2)cc1` (centres unmarked), `O=C(COC(=O)c1ccc2ccccc2n1)NCc1ccccc1` is higher in “hERG current change (%, negative = inhibition) at 1uM” value: 7.05% for the first, 9.15% for the second.

Going from `Cc1ccc(S(=O)(=O)C/N=C(/NC(=S)N(c2ccccc2)c2ccccc2)c2ccccc2)cc1` to `Cc1ccccc1Nc1nc(-c2cccnc2)nc2ccccc12.Cl`, the “hERG current change (%, negative = inhibition) at 1uM” value falls from 7.99% to 4.67%.

Going from `Cc1cccc(N2C(=O)CC(SC(N)=Nc3ccccc3)C2=O)c1` (centres unmarked) to `C=CCn1c(SCC(=O)Nc2ccccc2)nnc1-c1cccc(S(=O)(=O)N2CCOCC2)c1`, the “hERG current change (%, negative = inhibition) at 1uM” value rises from -9.43% to 3.54%.

Compared with `NC(=O)c1ccc(NC(=O)C2CC(=O)N(c3ccc4c(c3)OCCO4)C2)cc1` (centres unmarked), `COc1cccc(NC(=O)COc2ccc(N3CC(C(=O)NCC(C)C)CC3=O)cc2)c1` (centres unmarked) is higher in “hERG current change (%, negative = inhibition) at 1uM” value: 3.82% for the first, 12.7% for the second.

Going from `CC(C)c1ncc(S(=O)(=O)c2ccc(C(F)(F)F)cn2)c(N)n1` to `Cc1c(S(=O)(=O)Nc2ccc3c(c2)OCCO3)cnn1C`, the “hERG current change (%, negative = inhibition) at 1uM” value falls from 14.3% to 8.87%.

Going from `CC(=O)Nc1ccc(S(=O)(=O)N2CCN(Cc3cccs3)CC2)cc1.O=C(O)C(=O)O` to `CC1(C)CC2CC(C)(CN2S(=O)(=O)c2ccc(C(=O)Nc3cc(S(=O)(=O)N4CCOCC4)ccc3Cl)cc2)C1` (centres unmarked), the “hERG current change (%, negative = inhibition) at 1uM” value rises from 6% to 13.3%.

Going from `O=S(=O)(c1ccccc1)N1CCc2ccccc2C1` to `c1ccc(-c2ccccc2OCCN2CCCC2)cc1`, the “hERG current change (%, negative = inhibition) at 1uM” value falls from 14.6% to 1.5%.

Compared with `C/C(=N\OC(=O)c1c(-c2c(F)cccc2Cl)noc1C)c1nccs1`, `COc1cccc(-c2ncc3ccccc3c2COC(=O)c2cccs2)c1` is lower in “hERG current change (%, negative = inhibition) at 1uM” value: 10.3% for the first, 3.67% for the second.

Going from `COC(=O)c1ccc(C)c(NS(=O)(=O)c2ccc(OC)c(OC)c2)c1` to `COc1ccc(/C=C(/NC(=O)c2ccco2)C(=O)N2CCc3ccccc32)cc1OC`, the “hERG current change (%, negative = inhibition) at 1uM” value rises from 4.06% to 10.4%.

First: O=C(c1cnc(N2CCN(c3ccccn3)CC2)c2ccccc12)N1CCN(c2cccc(Cl)c2)CC1
Second: O=S(=O)(c1cccc2nsnc12)N1CCN(c2ccc(F)cc2)CC1
The “hERG current change (%, negative = inhibition) at 1uM” value of the first is lower: -19.9% for the first, -6.67% for the second.

Going from `O=C(Cn1cc(C(=O)C2CCCCC2)c2ccccc21)NCC1CCCO1` (centres unmarked) to `O=C(CN1CCS(=O)(=O)CC1)NNC(=O)C1CCCCC1`, the “hERG current change (%, negative = inhibition) at 1uM” value falls from 10.4% to 0.757%.

Going from `O=[N+]([O-])c1cccc(S(=O)(=O)NCc2ccccn2)c1` to `O=C(COc1ccc2c(c1)C(=O)CC1(CCCCC1)O2)NCc1ccccn1`, the “hERG current change (%, negative = inhibition) at 1uM” value falls from 18.3% to -1.75%.

First: CCCCc1nc2cc(C(=O)N3CCC[C@H]3CO)ccc2o1
Second: O=C(NCCCN1CCOCC1)c1cc(-c2ccc(Cl)c(Cl)c2)on1
The “hERG current change (%, negative = inhibition) at 1uM” value of the first is higher: 12.8% for the first, 0.781% for the second.

Compared with `CC(C)OC(=O)c1c(NC(=O)C2CC=CCC2C(=O)O)sc2c1CCCCC2` (centres unmarked), `Cc1cc(C)n(-c2nc3sc4c(c3c(=O)[nH]2)CCCC4)n1` is higher in “hERG current change (%, negative = inhibition) at 1uM” value: -0.316% for the first, 4.56% for the second.

Compared with `CCCC(=O)NC(=S)NNC(=O)c1ccc([N+](=O)[O-])cc1`, `CC(C)(C)n1nc2c(c1NC(=O)Cc1cccc3ccccc13)CS(=O)(=O)C2` is lower in “hERG current change (%, negative = inhibition) at 1uM” value: 9.56% for the first, 2.73% for the second.

Going from `O=C1NC(=S)NC(=O)C1=Cc1ccc2c(c1)CCN2CCCCl` to `Cn1c(NCCN2CCCCC2)cc(=O)n(C)c1=O`, the “hERG current change (%, negative = inhibition) at 1uM” value rises from 9.99% to 15.4%.

Compared with `Cc1ccccc1C(=O)NNc1ncnc2c1cnn2C`, `CCOc1nc(OCC)nc(-n2cc(-c3ccccc3)nn2)n1` is higher in “hERG current change (%, negative = inhibition) at 1uM” value: 4.15% for the first, 13.7% for the second.

First: COc1ccc(/C=N/Nc2nonc2N)c(OC)c1
Second: CSc1nnc(Cc2ccc3c(c2)OCO3)o1
The “hERG current change (%, negative = inhibition) at 1uM” value of the first is lower: 4.22% for the first, 9.09% for the second.

Going from `C[N+](C)(C)CC#CCOC(=O)Nc1cccc(Cl)c1.[Cl-]` to `CC(C)C(NS(=O)(=O)c1ccccc1)C(=O)NC1CCCC1` (centres unmarked), the “hERG current change (%, negative = inhibition) at 1uM” value falls from 10.3% to 9.28%.

Compared with `CCN1C[C@]2(C)CC[C@H](OC)[C@]34C2[C@H](OC(C)=O)[C@@]2(OCO[C@@]25C[C@H](OC)[C@H]2C[C@]3(O)C5[C@H]2OC)[C@@H]14`, `COc1ccc(CN2CC(C(=O)N3CCOCC3)CC2=O)cc1` (centres unmarked) is lower in “hERG current change (%, negative = inhibition) at 1uM” value: 26% for the first, 15.2% for the second.

Going from `CCC(C)[C@H](NC(=O)N1CC(=O)Nc2ccccc21)C(=O)N[C@H](Cc1ccccc1)C(=O)O` (some centres unmarked) to `CC(Oc1ccc(-c2ccccc2)cc1)C(=O)O` (centres unmarked), the “hERG current change (%, negative = inhibition) at 1uM” value rises from 5.12% to 15.5%.

Compared with `Cc1nn(-c2nc3ccccc3s2)c(N)c1Sc1ccc(F)cc1`, `CC(C)c1nnc(NC(=O)c2cccs2)s1` is lower in “hERG current change (%, negative = inhibition) at 1uM” value: 12.5% for the first, 11.3% for the second.
